This sample is rich in variants without activity.
B1: TPR 5TU (parent)
chain: GGAUCUUCUCGAUCUAACAAAAAAGACAAAUCUGCCACAAAGCUUGAGAGCAUCUUCGGAUGCAGAGGCGGCAGCCUUCGGUGGCGCGAUAGCGCCAACGUUCUCAACUAUGACACGCAAAACGCGUGCUCCGUUGAAUGGAGUUUAUCAUG

Variants of: B1
Experiment: polymerase ribozyme fitness, log enrichment relative to wild type (log ratio); higher = more active; in vitro selection for triplet polymerase activity
In short: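 Both subunits of a heterodimeric triplet polymerase ribozyme were given their own mutant library, built by PCR and transcribed. Each library was annealed with a biotinylated primer, the partner subunit and triplets, incubated frozen at −7 °C, and its extended constructs gel-excised, captured on streptavidin beads and amplified by RT-PCR, all in one round done in triplicate. Fitness is the logarithm of genotype enrichment relative to wild-type enrichment, with replicates averaged by inverse-variance weighting. That logarithm is base 2, and Illumina-sequenced genotypes needed ≥10 input reads and ≥1 read per output.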

Variant	polymerase ribozyme fitness (log ratio)
C79A C96U A97G C116G A138G	≤ -4.2
G81C G117C A138G	-4.02
U78C C85U A113C U135G	≤ -4.2
G83C A110G	-3.65
G81A G86A C99G	-1.98
C79G G88U C95A C96A C116A	≤ -4.2
G81A C87U C99A A137C U144C	≤ -4.2
U78G G117U G133C	≤ -4.2
C79U G100A G141U G143A	≤ -4.2
G84A G133C	-1.78
U77G C87A C95A A110U	≤ -4.2
U77C C87U G126A	≤ -4.2
G83U U127C G143A	≤ -4.2
U77A G92U C99G	-4.06
G80A A91C A120G	≤ -4.2
G83C C129G A137C U145C	≤ -4.2
G80A C99U C108G G141U	≤ -4.2
G83C U101C A119G A122U U135C U145A	-3.51
G83C A107C	≤ -4.2
C85A A91U C95A	≤ -4.2
G83U C93G A142U	≤ -4.2
U82G G84C A142U	≤ -4.2
G80A C87A A150C	≤ -4.2
G81C C93A C96G C118U U127C U145C	≤ -4.2

Variant	polymerase ribozyme fitness (log ratio)
C85A A91U	≤ -4.2
G84U C95U G143C	-3.33
G81A C85G	-1.86
G83C G128A	-3.88
G84U A120U	-2.07
G81C A120G	-0.127
G81A G88C C96U U102G C114U U146G	≤ -4.2
U78G A98U A142U	≤ -4.2
U77G G92U U134G	≤ -4.2
C79A C87G G100U U130G	≤ -4.2
G80C C93U A106G U146A	≤ -4.2
U82A C95U C96U A98C C116U G133U	≤ -4.2
C79U C93G	≤ -4.2
G83A C85U A113C U145C G152U	≤ -4.2
U77G A89C U104C	≤ -4.2
C79U C85G C118A	≤ -4.2
U78C C149A	≤ -4.2
C79G G88C A150G	≤ -4.2
U78A C79U U82A G94U C96G G126A G141U	≤ -4.2
U78A G143A	≤ -4.2
U82G G83C C116U U139C	≤ -4.2
G84U G117U	-1.61
U82C G84U A98G U148G	≤ -4.2
C79A C96U C108U	≤ -4.2

Variant	polymerase ribozyme fitness (log ratio)
G81A A97G C125U	-0.572
G83C C103G	≤ -4.2
U78A G81C G94C	≤ -4.2
G81A G86C A119U A142C	≤ -4.2
U82A G94C C96U G140A A150G	≤ -4.2
G84U C96U A122G C149G	≤ -4.2
U78A U130A A142C	≤ -4.2
G84A G128U	-3.84
U77C U151C	≤ -4.2
U78C C93G C103U A120G	≤ -4.2
G83C G94U	-2.72
U77C C95U G141A	≤ -4.2
G84U C108U U127A G133U G141C	≤ -4.2
G81C C87A C99G	≤ -4.2
G83C U102G C103G C118U	≤ -4.2
G84U U101G G143U	≤ -4.2
C79A C93U	≤ -4.2
G83C U134A A138U	≤ -4.2
U78G C85G G140A	≤ -4.2
C79U G100A A115G G128C A137C G140U	≤ -4.2
C79A C85A C116G	≤ -4.2
G84C C114U A115G C125A G128A	≤ -4.2
G83C C96G A106U U109C G117A G143A	≤ -4.2
G80U	-0.409

Variant	polymerase ribozyme fitness (log ratio)
G80C	-3.5
G80A	-0.0737
U82G C95A C99U A150C	≤ -4.2
G81C G84U	-2.44
U77G U82A	≤ -4.2
G84C U102G G140U	≤ -4.2
U77G U102A	≤ -4.2
G84C C85A C129U U146G	≤ -4.2
G83U A89G C96G U127A	≤ -4.2
G84C A97U U139A	≤ -4.2
U82G C85U U135G	≤ -4.2
U78A C93U	≤ -4.2
U82G A91U A110U G117A	≤ -4.2
G83A C95U C108A G126U C131G	≤ -4.2
G83A U139C U144G	≤ -4.2
G84A C85G A106G	≤ -4.2
G80A G86C G124A G140C	≤ -4.2
G84A U139G	-0.68
G83A A91C	≤ -4.2
U82G G143A	-0.245
G81A C87G A106C G141A	≤ -4.2
G80A A98C	-2.19
G83U A89G C103A C108G U134C A142C	≤ -4.2
G83A C118U G128A	≤ -4.2

Variant	polymerase ribozyme fitness (log ratio)
C79A G84A A147G	≤ -4.2
U78C C79G G83C A97U A121U	≤ -4.2
C79A C103A A107C	≤ -4.2
C79U C87U U90C C105U	≤ -4.2
U82A C93U U145G	-2.53
G84A G94U G128U	≤ -4.2
C79U C85G A138G	≤ -4.2
U77G A107G	≤ -4.2
U77C G92U C105G G128U	≤ -4.2
C79U A89G C93A G126U	≤ -4.2
U77G G84C C96G C103A A137C	≤ -4.2
G80C C116U C125G A142U	≤ -4.2
U77C C85U C93A C108G G143A	≤ -4.2
G84U U151A	≤ -4.2
G81A G88C A91U U111C A119C G124U U134G U135A	≤ -4.2
C79G G83A A89U C95U C96U C99G G141A	≤ -4.2
G84C G94A	-4.07
G83U A120U G141C	-0.804
U77G U148A	≤ -4.2
G81C G92A	-3.5
U82C C96A	-0.964
G81C A119U G128U	-2.99
G84C G126C	-1.54
C79A A97G A150G	≤ -4.2

Variant	polymerase ribozyme fitness (log ratio)
C79U C93A A98G C103U	≤ -4.2
G83C C132U A142U	≤ -4.2
G83A U134A	-2.04
U82G C87G	≤ -4.2
C79U A91U C95G A113C A120C G152A	≤ -4.2
U77C C79U C132A	≤ -4.2
U77G G84A G117U U135G	≤ -4.2
U77A U82C G94U A142G G143C	≤ -4.2
C79U G80A C99G U135G	≤ -4.2
G83U C114G A115U A119U	≤ -4.2
C79A G80U	≤ -4.2
G83A U90C	-3.51
U77G C95U	≤ -4.2
G81A G86C A89U C125U C131U A137G	-4.06
G83A U135C	-2.09
G84A A97U U146C	-0.418
G84U G94C U134A	≤ -4.2
C79G G83A C123U A142G	≤ -4.2
G83U G126A U148A	≤ -4.2
G84U U145A	-1.53
G81C C116A G124U A142C	≤ -4.2
U77A G92A G124U	≤ -4.2
C79U C93U G141A	≤ -4.2
G84U C103G A106G	≤ -4.2

Variant	polymerase ribozyme fitness (log ratio)
U77G U78G	≤ -4.2
U78A G83A C114U A137C	≤ -4.2
G83C C85G U102C	≤ -4.2
U77C U82G A91G A98G U148C	≤ -4.2
C79G G84A G94C G136C A138G A150G	≤ -4.2
U78A A91U A138C	≤ -4.2
U82C G112U G152A	-3.59
U82C C85U A120G C129A G136A C149A	≤ -4.2
U82C U104G G117U	0.147
C79G C87A C125U G136C A150G	≤ -4.2
U77A G86U C103U	≤ -4.2
G84A A113U G140U	≤ -4.2
C79G U82A C87U C103A G133U	≤ -4.2
G83C G84C C95G U102G A107G	≤ -4.2
C79U G88U U127G U144A	≤ -4.2
U78C A107U A119U A147C	≤ -4.2
C79A A115G G143A	≤ -4.2
C79U C85A U146C G152U	≤ -4.2
G80U C116G A119C A150C	≤ -4.2
U77C A107G A122G A138U U146C U148G A150U	≤ -4.2
U82G C95U G100A A106G A137U A138G C149U G152U	≤ -4.2
U82C A89U	-0.15
U82G G86U U109C G143A U145C	≤ -4.2

Reference: the RNAGym collection of RNA variant scans (doi:10.1073/pnas.2313332121)
